This is an account of results in PMC10726135.

Some of the results follow. At the low end of the ranking, values are background and their order means little. Measured with an extract: partners may take part in the binding.

The test addresses T1, HNF4alpha8 (COS-7 nuclear extract) (UniProt P41235-5).
T1 sequence: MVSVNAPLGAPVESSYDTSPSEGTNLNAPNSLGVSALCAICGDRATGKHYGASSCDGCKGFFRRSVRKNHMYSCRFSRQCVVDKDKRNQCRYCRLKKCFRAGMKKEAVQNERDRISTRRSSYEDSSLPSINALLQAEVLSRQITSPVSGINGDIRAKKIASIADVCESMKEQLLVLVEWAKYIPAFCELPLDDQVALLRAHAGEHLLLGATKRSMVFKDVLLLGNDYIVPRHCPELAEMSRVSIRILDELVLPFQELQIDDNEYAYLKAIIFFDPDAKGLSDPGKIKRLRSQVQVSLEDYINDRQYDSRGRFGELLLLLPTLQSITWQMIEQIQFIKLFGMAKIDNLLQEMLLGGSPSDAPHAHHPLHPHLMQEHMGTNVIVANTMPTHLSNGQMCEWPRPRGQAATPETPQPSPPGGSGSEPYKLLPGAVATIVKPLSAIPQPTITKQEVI
Put plainly: protein-binding microarray. As to conditions: COS-7 nuclear extract on double-stranded Agilent 4x180k PBM; binding buffer, salt, pH and temperature not given; high values mean tight binding; double strand, one strand shown; sequences stand for … in …GCCTAGGGAGATTAGAGTATCGGTCGA
Consider ATAGGCTGGGATGATTTCAGCTTATAAATC, for which the binding signal (log2 normalized intensity) was -1.39.

In the case of TATCAGTGTAACTATTACTGGACAGCCAGC, the binding signal (log2 normalized intensity) is -0.863.

Take TTGCAAGTCTGAGGCTGCTCTCTGTCCCTG: the binding signal (log2 normalized intensity) came to 0.546.

As for GTCTGCAGCTGAACCATATTCTTTACATTT, the binding signal (log2 normalized intensity) was -0.0571.

With TGAGAGAGCCCCTGTGATACAACGGTTCAA, the binding signal (log2 normalized intensity) turned out to be 0.435.

On to GGTCATCAGGACTCTAACTGGCTTTAAGAG, for which the binding signal (log2 normalized intensity) was -1.2.

Regarding TGTGGCTGCCAAGACACAGAGAAAAAGAAG, the binding signal (log2 normalized intensity) was -1.28.

As for ACAACCCCTACTGTACCCTATGCACCCCAC, the binding signal (log2 normalized intensity) came out at 4.43.

AGCCCCACAGAGCAAAGGTCATGCATAGAA: the binding signal (log2 normalized intensity) stood at 5.42.

Regarding GGCTCAGCATTCTGAGGGCCTCCAATAGGG, the binding signal (log2 normalized intensity) is -1.42.

For the sequence TAAGGAGGTAGAGTCTAAGGCTAAAACATC, the binding signal (log2 normalized intensity) is -1.39.

In the case of GCCCAACTCGGAGGACTGAGCCCGCTCCAC, the binding signal (log2 normalized intensity) is -1.3.

With GGGCATTACTTGCTGGAGAAAGAGGGGAAG, the binding signal (log2 normalized intensity) was -1.15.

ATGAAAGCGCCTTGCTTTCTGCCCAGGGAG: the binding signal (log2 normalized intensity) is -1.33.

With GAGATAAGATCAGTATAGTTAGGGCCTTGC, the binding signal (log2 normalized intensity) is -0.807.

Take GAGTTTAAATGACCTCTGCCCTTCCACCCA: the binding signal (log2 normalized intensity) was determined as 5.16.

With GAGGGAGACAACCTTTGGTCACTTGTAAGA, the binding signal (log2 normalized intensity) was found to be 3.76.

With TCTCGCTGCTTCGGCCTTTGACCTCGTGAT, the binding signal (log2 normalized intensity) is 7.09.

In the case of CTTTGTTCCCTGGCTCACTGACTCAGTCTT, the binding signal (log2 normalized intensity) was found to be 0.203.

In the case of TAAAGCCCTGGGGTAATAAAAGTGTACAAA, the binding signal (log2 normalized intensity) worked out at 0.639.

On to CAGAATTGCTGCTCCCCCTCCCAAATCGGT, for which the binding signal (log2 normalized intensity) worked out at 4.07.

Turning to CTGGAGGGACTGTGATGAAGGCAGAAAGAA, the binding signal (log2 normalized intensity) was -1.32.

In the case of ACAGCACCTCTCTGATGCCATGATAAGCAG, the binding signal (log2 normalized intensity) is -1.33.

In the case of GGCCTCAGGTTCAAAGGGCTTAATCTTTCC, the binding signal (log2 normalized intensity) was found to be 2.3.

Regarding CCTTTGGTGCCTCTTTTTTCTTGTTGACTT, the binding signal (log2 normalized intensity) turned out to be 1.91.

With CATAAACACAGACACACATGAGCTAGTGCT, the binding signal (log2 normalized intensity) is -1.43.

As for GGGTTCACATTCCAGCTCTGTGACTTTACC, the binding signal (log2 normalized intensity) was 1.09.

Consider ATTCCCTTCCCCTCCTTAGGAAAGAGACAT, for which the binding signal (log2 normalized intensity) is 2.47.

Regarding TCCTTCTTGCTTAGGATAGGGTCAGTCTTT, the binding signal (log2 normalized intensity) worked out at 2.48.

Regarding CCCTAGACACCGGGTGAAGGTTAAATAGCT, the binding signal (log2 normalized intensity) is -1.26.

Turning to ATACTGGATAACCTTCCAGACAGAGAGGTC, the binding signal (log2 normalized intensity) amounted to 1.83.

As for AGCATGGTCCACAGCTTTGGGCATACAAAA, the binding signal (log2 normalized intensity) is -1.32.

Regarding AAATCTGCCCAACCTTTGCCCCTGGAGGGA, the binding signal (log2 normalized intensity) worked out at 4.18.

As for AGCAGTGACTTGAGAGGCCAGTTTCTCCAC, the binding signal (log2 normalized intensity) was -1.36.

AGCAAGAGCACAAGAACAAAAACTGTTTCT: the binding signal (log2 normalized intensity) was -1.44.

On to AGGGGGCAGGAGCCCAAGAAGCGTCAGTTG, for which the binding signal (log2 normalized intensity) is -1.24.

With AATCGAATTGTGAAACTCAGAATCAGGGGA, the binding signal (log2 normalized intensity) is -1.29.

For the sequence CCCTCCTCCTTTTTTTCCCCTCCCTCAGCT, the binding signal (log2 normalized intensity) turned out to be 3.51.

Take AGAAGTAAGAAATCAGGAGCAAAGGTTGGG: the binding signal (log2 normalized intensity) was found to be 1.89.

Consider AGCAGGTGTTCACCTTCAGTCACACTGTTT, for which the binding signal (log2 normalized intensity) was 0.347.

On to GGGCCATGACCTTTACCCCCATTTGGTAAT, for which the binding signal (log2 normalized intensity) was determined as 7.13.

Regarding AAGGTCAAACAGTGCACTGAAATCTCTCAA, the binding signal (log2 normalized intensity) is -0.954.

Consider CAGTGATATTCTCTCGTCACCTCCACCCAC, for which the binding signal (log2 normalized intensity) was determined as 2.77.

For the sequence GCTCTGGCCACTCCCTGGGCAGTGCAGTAT, the binding signal (log2 normalized intensity) was -1.22.

On to TCCCCACCCCCAACTTCCCCAACCCTTGCA, for which the binding signal (log2 normalized intensity) stood at 6.31.

TCCCAGCATTCCAAGTGAGTAAGGAAAGCC: the binding signal (log2 normalized intensity) was -1.28.

Consider GTCAGAGTGCTGCATGCAAAAAGGCTGACC, for which the binding signal (log2 normalized intensity) amounted to 1.75.

For TTGCCCAGAGGGGTTCCTCAGTAAATGCTG, the binding signal (log2 normalized intensity) was -1.04.

Consider GTGGACTTTCACCTCCACCAGATAGCAAGG, for which the binding signal (log2 normalized intensity) turned out to be 4.15.

On to GGACCGCAGAGGCTGGAGCAGGCCATGTGC, for which the binding signal (log2 normalized intensity) is -1.39.

As to GAAAAGTGTTTGCCAAAGGATATCTTTAAT, the binding signal (log2 normalized intensity) stood at 0.613.

Regarding GCGGAGAGGGTTCTCACTCCTCTATCAGTA, the binding signal (log2 normalized intensity) was -1.37.

Turning to TGCTGGAAACCTAGGAGTTATCTAAGACCC, the binding signal (log2 normalized intensity) was -1.2.

Take TTCACTTGCCACATTTATTGTGAGATTACG: the binding signal (log2 normalized intensity) came to 0.83.

Regarding ATGAAGATGCAGAACAAGGTAGCCACAGAA, the binding signal (log2 normalized intensity) is -1.28.

Regarding TCTCTGTTGACCACCTGCCCCAGGAATGCC, the binding signal (log2 normalized intensity) is 2.43.

For AACCACAGAAATGCCGCTAATGTATTTCGG, the binding signal (log2 normalized intensity) was -0.807.

As for AAGTCTCTAGATGGGGTTGAGCAGACTAAA, the binding signal (log2 normalized intensity) was -0.554.

Take CCTCCCCTCCCCCTTGGTGTTTAAACACAT: the binding signal (log2 normalized intensity) came to 4.87.

Regarding ATGACCAGCAGGGTGACCAGTGGACCATGA, the binding signal (log2 normalized intensity) is 3.07.

GAGGAGCACAGAAGGAGAGAGAGGGAGAGT: the binding signal (log2 normalized intensity) was -1.31.

CAGAGATTGGAATCTCTGCACAGCATAGAA: the binding signal (log2 normalized intensity) was -1.31.

For CTGAGAGTCACTGCCTTATCGTATTCTTAT, the binding signal (log2 normalized intensity) was -0.107.

AAAGAATAACGTTACAGTGGAGAAACCTGA: the binding signal (log2 normalized intensity) was -1.41.

On to GTGATTAGTGCAAGAATCCAAGAATTCGAT, for which the binding signal (log2 normalized intensity) was -1.32.

Take GAGGGCGAGGCCGAGCCTCAGCCGGGAGAG: the binding signal (log2 normalized intensity) was -1.3.

Turning to CTTATCAGCAGGAGACCTGAAACTAGACCA, the binding signal (log2 normalized intensity) is -1.4.

Take CACATTTCAGGAATGTTTTATGTGCTCCAT: the binding signal (log2 normalized intensity) worked out at 1.51.

For CACTAATCTGTCAGAAAACCCACGCCCACC, the binding signal (log2 normalized intensity) was 2.63.

As to GGTTGTAAAATGAGGTCAGCATGGTGGGAG, the binding signal (log2 normalized intensity) was determined as 1.04.

With AGGGAGGAAGGCAACCACAGCCTCTGCATT, the binding signal (log2 normalized intensity) is -1.43.

Take ATATCAACTGGACAAATTCCTGGGAACTGC: the binding signal (log2 normalized intensity) was -1.28.
